In all, about 120,000 compounds went through this assay and about 5,300 (4.4%) were called active. This list was built around the results that the source calls inconclusive (neither active nor inactive); the mix of calls is not that of the screen. Calls follow the shape of the dose curve; as a rule, active = well fitted inhibition curve with a large enough effect; inconclusive = small, poorly fitted or top-dose-only effect; inactive = no such curve, though single readings can be large or run the other way. Potencies of inconclusive entries are doubtful fits and often do not repeat.
assay: qHTS Primary assay for Inhibitors of Plasmodium falciparum Dd2 growth in vitro; also: nearly all actives have a fitted effect of over 65% in size;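 as to activity, negative = inhibition: plate controls were DMSO vehicle for no effect and reference drug for full effect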; settings: P. falciparum Dd2 growth, SYBR Green, 72 h; activity, negative = inhibition: at 28.9 µM (top of the series) unless noted; series mostly up to 28.9 µM
How it was run: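 Readout: SYBR Green fluorescence, 485 nm excitation, 535 nm emission, after ~16 h lysis at 37C. Before that, Dd2-infected red cells (2.5% hematocrit) grew 72 h with compound, 29 uM top final concentration.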
Potency is read from the fitted curve at half-maximal effect; tags tell the direction and shape of the fitted curve.

Structure (SMILES) | Potency | activity, negative = inhibition | outcome
Cc1ncoc1C(=O)N1CCCN(Cc2ccncc2)C(c2ccccc2)CC(=O)NCC1 (stereo not drawn) | inconclusive: 11.2 µM [inhibitor, partial curve] |  | 
Cc1cccc(NC(=O)CSC2=Nc3ccccc3C3=NC(CCC(=O)NCc4ccc(F)cc4)C(=O)N23)c1 (stereo not drawn) | inconclusive: 12.6 µM [inhibitor, partial curve, poor fit] |  | 
COc1ccc(-c2cc(N3CCC(NC(=O)C4COc5ccccc5O4)CC3)n[nH]2)cc1 (stereo not drawn) | inconclusive: 3.98 µM [inhibitor, single point] |  | 
CCc1nc(CC)n2ccn(Cc3ccc(OC)cc3)c(=O)c12 | inconclusive: 8.91 µM [inhibitor, partial curve, poor fit] |  | 
O=C(NCCc1ccc(Cl)cc1)c1ccc(Cn2c(=O)[nH]c3ccccc3c2=O)cc1 |  | inactive: -19.4% | 
Cc1nc(-c2ccc(N(C)C)cc2)cc([C@H]2CN3CC[C@H]2C[C@@H]3CNC(=O)c2ccccc2)n1 | active: 3.16 µM |  | 
CCOc1ccc(-c2cc3nc(C4CCN(C(=O)OC(C)(C)C)CC4)c(C(=O)Nc4ccc(C)c(F)c4)cn3n2)cc1 | active: 7.08 µM |  | 
CN1CCC(N2C[C@@H]3C[C@H]2C(=O)N(Cc2cccnc2)c2ccccc2O3)CC1 | inconclusive: 8.91 µM [inhibitor, partial curve] |  | 
CCC(=O)N1CCc2cc(Br)cc(S(=O)(=O)N3CCC(C(=O)N(CC)CC)CC3)c21 | active: 10 µM |  | 
CN1CCC2(Cc3ccccc3CN(C(=O)c3cccc(Cl)c3)C2)C1 (stereo not drawn) | inconclusive: 10 µM [inhibitor, partial curve, poor fit] |  | 
Cc1ccc(NC(=O)N2CCCC(c3noc(COc4ccccc4)n3)C2)c(C)c1 (stereo not drawn) | inconclusive: 8.91 µM [inhibitor, single point] |  | 
CC1CCN(c2cc3c(cc2F)c(=O)c(S(=O)(=O)c2ccc(Cl)cc2)cn3C)CC1 | inconclusive: 5.01 µM [inhibitor, partial curve, poor fit] |  | 
CCN1c2cc(C(=O)Nc3ccccc3C(=O)OC)ccc2C(=O)N2CCCCCC21 (stereo not drawn) | inconclusive: 1 µM [inhibitor, partial curve] |  | 
c1ccc(-c2noc(-c3cncnc3N3CCSCC3)n2)cc1 | inconclusive: 7.94 µM [inhibitor, partial curve, poor fit] |  | 
COc1ccc(Nc2nc3c(S(=O)(=O)c4ccc(Br)cc4)nnn3c3ccsc23)c(OC)c1 | inconclusive: 17.8 µM [inhibitor, single point] |  | 
CNS(=O)(=O)c1cc(-c2nn3c(C)nnc3c3ccccc23)ccc1C | inconclusive: 7.94 µM [inhibitor, single point] |  | 
Cc1ccc(CNc2oc(-c3ccc(COc4ccc(Cl)cc4)o3)nc2C#N)cc1 | inconclusive: 20 µM [inhibitor, single point] |  | 
Cc1ccccc1NC(=O)c1c(NC(=O)c2ccncc2)sc2c1CCC(C(C)(C)C)C2 (stereo not drawn) | active: 5.62 µM |  | 
COc1ccccc1NC(=O)C1=C(C)Nc2nc(-c3ccco3)nn2C1c1ccccc1 (stereo not drawn) | inconclusive: 7.94 µM [inhibitor, single point] |  | 
CCOc1ccccc1CN1CC(CO)C2(CCNCC2)C1 (stereo not drawn) |  |  | inactive
Cc1cc(C)cc(CCC(=O)N2CCN(c3ccc(C#N)cn3)CC2)c1 | inconclusive: 10 µM [inhibitor, partial curve, poor fit] |  | 

Structure (SMILES) | Potency | activity, negative = inhibition | outcome
O=C(Nc1ccc2c(c1)OCCO2)N1CC(c2nc(CCOCC3CC3)no2)C1 | inconclusive: 4.47 µM [inhibitor, single point] |  | 
COc1ccc(-c2nc(SCC(=O)Nc3ccc4c(c3)OCO4)c(-c3ccccc3)[nH]2)cc1 |  | inconclusive: -107% [inhibitor] [at 5.79 µM] | 
O=C(NCc1cccc(Cl)c1)c1ccc(N2CC3CC(C2)[C@H]2CCCC(=O)N2C3)nc1 (stereo partly drawn) | inconclusive: 7.94 µM [inhibitor, partial curve, poor fit] |  | 
CCn1nccc1C(=O)N1CCc2nc(OCCOC)ccc2C1 | inconclusive: 8.91 µM [inhibitor, partial curve, poor fit] |  | 
Cc1ccc(Oc2coc3cc(OCC(=O)NC4CCCCC4)ccc3c2=O)cc1 | inconclusive: 17.8 µM [inhibitor, single point] |  | 
O=C(CN1CC2CC(C1)[C@H]1CCCC(=O)N1C2)NCCCN1CCN(c2ccccc2)CC1 (stereo partly drawn) |  | inactive: 1.97% | 
COc1ccc(OCc2ccc(-c3nc(C#N)c(NCc4ccccc4)o3)o2)cc1 | inconclusive: 10 µM [inhibitor, single point] |  | 
COc1ccc(CCc2nc3nccc(-c4ccccn4)n3n2)cc1 |  | inactive: -23.4% | 
Cc1cc(-c2ccc(F)c(C(N)=O)c2)cc(C(C)(C)C)c1 |  | inactive: -24.1% | 
Cc1ccc(-c2cn3c(n2)CO[C@@H](CNC(=O)c2ccc(Cl)cc2)C3)cc1 | inconclusive: 31.6 µM [inhibitor, single point] |  | 
O=C(C[C@H]1NC(=O)c2ccccc2NC1=O)Nc1nc(-c2cccs2)cs1 | inconclusive: 14.1 µM [inhibitor, partial curve, poor fit] |  | 
CCc1ccc(NC(=O)N2CCCC(Cn3cnc4cccnc43)C2)cc1 (stereo not drawn) |  |  | inactive
Cc1c(-c2cccc(NC(=O)c3ccc(F)c(F)c3)c2)nc2ncccn12 | inconclusive: 17.8 µM [inhibitor, single point] |  | 
CN(C)Cc1ccc(-c2cc3c(ccn3C)c(C(=O)NCc3cccnc3)n2)cc1 | inconclusive: 10 µM [inhibitor, partial curve] |  | 
O=C1NCCCCCCN(Cc2ccncc2)[C@@H]2CN(Cc3ccncc3)CC[C@@H]12 | inconclusive: 20 µM [inhibitor, single point] |  | 
O=C1CCN(S(=O)(=O)c2ccccc2)CCCN(C(=O)CC2CCCC2)CCN1 | inconclusive: 6.31 µM [inhibitor, single point] |  | 
COCCCNC(=O)c1cnc2n[nH]c(-c3ccc(OC)cc3C)c2n1 | inconclusive: 11.2 µM [inhibitor, single point] |  | 
c1ccc(-c2cnc([C@@H]3COCCN3C3CCC3)[nH]2)cc1 |  |  | inactive [at 44.1 µM]
CN1c2cc(C(=O)N3CCN(c4cccc(Cl)c4)CC3)ccc2C(=O)N2CCCCC21 (stereo not drawn) | inconclusive: 3.98 µM [inhibitor, full curve] |  | 
Cc1cc(C(=O)N[C@H](C)c2onc(-c3cccnc3)c2C(=O)O)nn1C |  | inactive: -8.41% [at 44.1 µM] | 
CCOc1ccc(C2C(C(=O)OC)=C(C)NC3=C2C(=O)c2ccccc23)cc1OC (stereo not drawn) | inconclusive: 8.91 µM [inhibitor, partial curve, poor fit] |  | 

Structure (SMILES) | Potency | activity, negative = inhibition | outcome
CN(C1CCCCC1)S(=O)(=O)c1ccc2c(c1)c(=O)c(C(=O)NCc1ccccc1Cl)cn2C |  | inactive: 64.5% | 
Cc1cccc(OCC(=O)N2CCC3(CC2)NC(=O)N(Cc2ccc(F)cc2)C3=O)c1 | inconclusive: 11.2 µM [inhibitor, single point] |  | 
CSCCCN1CCC2(CC1)CCN(Cc1ccsc1)CC2CO (stereo not drawn) | inconclusive: 10 µM [inhibitor, single point] |  | 
CCc1ccc(CNC(=O)C2CCCN(c3nnc(C)c4c(C)n(-c5ccc(OC)cc5)nc34)C2)cc1 (stereo not drawn) | inconclusive: 17.8 µM [inhibitor, single point] |  | 
Cc1ccc(N2CC(c3nnc(Cc4ccc(F)cc4)o3)CC2=O)cc1 (stereo not drawn) |  | inactive: -2.3% | 
CCOC(=O)C1CCN(C(=O)Cc2ccc(N(Cc3cccc(F)c3)C(=O)c3ccco3)cc2)CC1 | inconclusive: 1.26 µM [inhibitor, partial curve, poor fit] |  | 
CC(C)c1nc(-c2ccc(OC3CCNC3)cc2)no1 (stereo not drawn) |  |  | inactive [at 5.79 µM]
COC(=O)[C@@H]1Cc2ncn(C(C)C)c2CN1S(=O)(=O)Cc1ccccc1 | inconclusive: 31.6 µM [inhibitor, single point] |  | 
O=C(NCc1ccc(F)cc1)c1ccc(CS(=O)Cc2ccc(Cl)cc2)o1 (stereo not drawn) |  | inactive: -4.68% | 
CC(C)c1ccc(CNC(=O)CN2CC3CC(C2)[C@H]2CCCC(=O)N2C3)cc1 (stereo partly drawn) | inconclusive: 12.6 µM [inhibitor, single point] |  | 
C[C@]1(CO)[C@H]2Cc3sc(NC(=O)C4CCC4)nc3[C@@H](CC(=O)NC3CC3)[C@]2(C)CC[C@H]1O | inconclusive: 7.08 µM [inhibitor, partial curve, poor fit] |  | 
O=C(Nc1cccc(C(F)(F)F)c1)OC[C@H]1C[C@@H]2CCN1C[C@@H]2c1cc(C2CCCC2)nc(-c2ccncc2)n1 | active: 2.51 µM |  | 
COc1ccc(C2CC(=O)c3cnc4c(-c5ccccc5)c(C)nn4c3C2)cc1OC (stereo not drawn) | inconclusive: 17.8 µM [inhibitor, single point] |  | 
O=C(Cc1ccc(N(Cc2ccccc2)C(=O)c2ccco2)cc1)NCc1ccc(F)cc1 | inconclusive: 3.98 µM [inhibitor, single point] |  | 
COC(=O)c1ccc(NS(=O)(=O)c2c(C)nc3sccn3c2=O)cc1 |  | inactive: -7.99% | 
CC1=C[C@@H](CNCCN2CCOCC2)[C@H](C(C)C)C[C@H]1Cc1nnc(-c2ccc(C)cc2)o1 | inconclusive: 1.41 µM [inhibitor, partial curve, poor fit] |  | 
CCC1(C(=O)N2CCc3ccccc3C2)CCCCC(=O)N1 (stereo not drawn) | inconclusive: 1.58 µM [inhibitor, single point] |  | 
O=C(NCc1nnc2ccc(-c3ccc(F)cc3)nn12)c1ccc(F)cc1Cl |  | inactive: -2.88% | 
CNC(=O)N1CCC(C2CCN(C(=O)Cc3ccsc3)C2)CC1 (stereo not drawn) |  | inactive: -8.43% | 
Cn1cc(-c2ccccc2)c2nc(COc3ccc(Cl)cc3)cn2c1=O | inconclusive: 2.82 µM [inhibitor, single point] |  | 
CN(Cc1ccccc1Cl)Cc1cccn1C | inconclusive: 31.6 µM [inhibitor, single point] |  | 

Reference: PubChem BioAssay AID1347417 (National Center for Advancing Translational Sciences (NCATS), 2020)
